Experimental data published in patent publication US20250250344A1 (KEXING BIOPHARM, published 2025).

T1: VEGF165 (Novoprotein, C083) (UniProt P15692-4 27-191)
T1 sequence (looked up): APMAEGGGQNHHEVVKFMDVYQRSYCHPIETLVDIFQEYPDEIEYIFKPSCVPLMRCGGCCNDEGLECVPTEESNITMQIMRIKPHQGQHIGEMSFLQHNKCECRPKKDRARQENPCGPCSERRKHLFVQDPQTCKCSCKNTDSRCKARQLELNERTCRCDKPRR

T2: Human ANG-2 protein (Sino Biological, 10691-H08H) (human, UniProt O15123 19-496)
T2 construct: Bought protein; also called human ANG-2.his; Angiopoietin-2; not shown: His tag ('ANG-2.his')
T2 sequence (looked up): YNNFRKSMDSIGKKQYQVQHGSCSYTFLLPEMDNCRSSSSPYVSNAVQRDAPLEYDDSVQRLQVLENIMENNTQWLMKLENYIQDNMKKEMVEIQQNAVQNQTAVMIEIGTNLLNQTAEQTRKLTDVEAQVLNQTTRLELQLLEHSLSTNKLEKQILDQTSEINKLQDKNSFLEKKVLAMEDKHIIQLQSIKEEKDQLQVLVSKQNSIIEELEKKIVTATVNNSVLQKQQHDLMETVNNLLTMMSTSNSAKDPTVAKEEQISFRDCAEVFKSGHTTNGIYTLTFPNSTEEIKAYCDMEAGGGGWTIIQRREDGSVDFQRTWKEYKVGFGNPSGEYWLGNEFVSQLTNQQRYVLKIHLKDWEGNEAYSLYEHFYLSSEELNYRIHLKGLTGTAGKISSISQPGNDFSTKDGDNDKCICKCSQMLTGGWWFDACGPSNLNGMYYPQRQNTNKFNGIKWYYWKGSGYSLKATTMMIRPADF

T3: Human VEGFA165.his (ACRO, VE5-H5248) (human, UniProt P15692-4 27-191)
T3 construct: Bought protein; not shown: His tag ('VEGFA165.his')
T3 sequence (looked up): T1 sequence (looked up)

B1: GB10-04 tetravalent bispecific inhibitor (bispecific antibody)
chain: SDTGRPFVEMYSEIPEIIHMTEGRELVIPCRVTSPNITVTLKKFPLDTLIPDGKRIIWDSRKGFIISNATYKEIGLLTCEATVNGHLYKTNYLTHRQTNTIIDVVLSPSHGIELSVGEKLVLNCTARTELNVGIDFNWEYPSSKHQHKKLVNRDLKTQSGSEMKKFLSTLTIDGVTRSDQGLYTCAASSGLMTKKNSTFVRVHEK[human IgG1 Fc left out]GGGSGGGGSGGGGSGGGGSQLQLVESGGGLVQPGGSLRLSCAASGFTLGYYSIGWFRQAPGKEREGVSCISRTDGSTYYADSVKGRFTISRDNAKNTVYLQMNNLKPEDTAVYYCAVKGARYSGSYLCGLDEYDYWGQGTQVTVSS
notes: expressed in HEK 293 cells; also called GB10-04 antibody
B2: GB10-08 tetravalent bispecific inhibitor (bispecific antibody)
chain: SDTGRPFVEMYSEIPEIIHMTEGRELVIPCRVTSPNITVTLKKFPLDTLIPDGKRIIWDSRKGFIISNATYKEIGLLTCEATVNGHLYKTNYLTHRQTNTIIDVVLSPSHGIELSVGEKLVLNCTARTELNVGIDFNWEYPSSKHQHKKLVNRDLKTQSGSEMKKFLSTLTIDGVTRSDQGLYTCAASSGLMTKKNSTFVRVHEK[human IgG1 Fc left out]GGGSGGGGSGGGGSGGGGSQVQLVESGGGLVQPGGSLRLSCAASGFSFSSATMSWHRQTPGKERTMVALIAYAGGSTTYADSVKGRFTISRDNAKNTVYLQMSNLKPEDTAVYYCNTRRYNRDFWGQGTQVTVSS
notes: expressed in HEK 293 cells; also called GB10-08 antibody
B3: GB10-03 tetravalent bispecific inhibitor (bispecific antibody)
chain: SDTGRPFVEMYSEIPEIIHMTEGRELVIPCRVTSPNITVTLKKFPLDTLIPDGKRIIWDSRKGFIISNATYKEIGLLTCEATVNGHLYKTNYLTHRQTNTIIDVVLSPSHGIELSVGEKLVLNCTARTELNVGIDFNWEYPSSKHQHKKLVNRDLKTQSGSEMKKFLSTLTIDGVTRSDQGLYTCAASSGLMTKKNSTFVRVHEK[human IgG1 Fc left out]GGGSGGGGSGGGGSGGGGSQLQLVESGGGLVQPGGSLRLSCAASGFTLDYYAIGWFRQVPGKAREGLSCISSGDGSTYYADSVKGRFTISRDNTKNTVYLQMNSLKPEDTAVYSCAAVRSGSKCLVTRGTVVAAGQLYEYWGQGTQVTVSS
notes: expressed in HEK 293 cells; also called GB10-03 antibody
B4: GB10-09 tetravalent bispecific inhibitor (bispecific antibody)
chain: SDTGRPFVEMYSEIPEIIHMTEGRELVIPCRVTSPNITVTLKKFPLDTLIPDGKRIIWDSRKGFIISNATYKEIGLLTCEATVNGHLYKTNYLTHRQTNTIIDVVLSPSHGIELSVGEKLVLNCTARTELNVGIDFNWEYPSSKHQHKKLVNRDLKTQSGSEMKKFLSTLTIDGVTRSDQGLYTCAASSGLMTKKNSTFVRVHEK[human IgG1 Fc left out]GGGSGGGGSGGGGSGGGGSQVQLVESGGGLVQPGGSLRLSCAASGSIFSFSTVRWYRQAPGKQREPVATLLDDGSTNYADSVKGRFTISTDNAKNTVYLQMNSLKPEDTAVYYCNADGRTGWGPRGDYWGRGTQVTVSS
notes: expressed in HEK 293 cells; also called GB10-09 antibody
B5: GB10-14 tetravalent bispecific inhibitor (bispecific antibody)
chain: SDTGRPFVEMYSEIPEIIHMTEGRELVIPCRVTSPNITVTLKKFPLDTLIPDGKRIIWDSRKGFIISNATYKEIGLLTCEATVNGHLYKTNYLTHRQTNTIIDVVLSPSHGIELSVGEKLVLNCTARTELNVGIDFNWEYPSSKHQHKKLVNRDLKTQSGSEMKKFLSTLTIDGVTRSDQGLYTCAASSGLMTKKNSTFVRVHEK[human IgG1 Fc left out]GGGSGGGGSGGGGSGGGGSQVQLVESGGGLVQPGGSLRLSCAASGSSFKFSTVRWYRQAPGKQREPVATHDDGSTNYEDSVKGRFTISRDNAKNTAFLQMNSLKPEDTAVYYCNADGSTGWGPRGDYWGRGTQVTVSS
notes: expressed in HEK 293 cells; also called GB10-14 antibody
B6: VHH2-09 antibody (Fc fusion)
heavy: QVQLVESGGGLVQPGGSLRLSCAASGSIFSFSTVRWYRQAPGKQREPVATLLDDGSTNYADSVKGRFTISTDNAKNTVYLQMNSLKPEDTAVYYCNADGRTGWGPRGDYWGRGTQVTVSS[human IgG1 Fc with changes left out]
notes: Single-domain antibody variable region fused to human IgG1 Fc, expressed in CHO cells, purified on Protein A; also called ANG-2 single-domain antibody VHH2-09
B7: VHH2-03 antibody (Fc fusion)
heavy: QLQLVESGGGLVQPGGSLRLSCAASGFTLDYYAIGWFRQVPGKAREGLSCISSGDGSTYYADSVKGRFTISRDNTKNTVYLQMNSLKPEDTAVYSCAAVRSGSKCLVTRGTVVAAGQLYEYWGQGTQVTVSS[human IgG1 Fc with changes left out]
notes: Single-domain antibody variable region fused to human IgG1 Fc, expressed in CHO cells, purified on Protein A; also called ANG-2 single-domain antibody VHH2-03
B8: VHH-04 antibody (Fc fusion)
heavy: QLQLVESGGGLVQPGGSLRLSCAASGFTLGYYSIGWFRQAPGKEREGVSCISRTDGSTYYADSVKGRFTISRDNAKNTVYLQMNNLKPEDTAVYYCAVKGARYSGSYLCGLDEYDYWGQGTQVTVSS[human IgG1 Fc with changes left out]
notes: Single-domain antibody variable region fused to human IgG1 Fc, expressed in CHO cells, purified on Protein A; also called ANG-2 single-domain antibody VHH-04
B9: VHH-08 antibody (Fc fusion)
heavy: QVQLVESGGGLVQPGGSLRLSCAASGFSFSSATMSWHRQTPGKERTMVALIAYAGGSTTYADSVKGRFTISRDNAKNTVYLQMSNLKPEDTAVYYCNTRRYNRDFWGQGTQVTVSS[human IgG1 Fc with changes left out]
notes: Single-domain antibody variable region fused to human IgG1 Fc, expressed in CHO cells, purified on Protein A; also called ANG-2 single-domain antibody VHH-08
B10: VHH2-14 antibody (Fc fusion)
heavy: QVQLVESGGGLVQPGGSLRLSCAASGSSFKFSTVRWYRQAPGKQREPVATHDDGSTNYEDSVKGRFTISRDNAKNTAFLQMNSLKPEDTAVYYCNADGSTGWGPRGDYWGRGTQVTVSS[human IgG1 Fc with changes left out]
notes: Single-domain antibody variable region fused to human IgG1 Fc, expressed in CHO cells, purified on Protein A; also called ANG-2 single-domain antibody VHH2-14

Biological target: T1, VEGF165 (Novoprotein, C083)
Assay: cell-based or functional assay

IC50 Values for VEGF Reporter Gene Inhibition (H-VEGF Reporter 293 cells, luciferase RLU) [nM]	Relative Activity, VEGF reporter gene inhibition (against Faricimab = 100%) [%]	Binder
0.03	557	B1
0.048	347	B2
0.045	366	B3
0.051	322	B4
0.045	371	B5

Biological target: T1, VEGF165 (Novoprotein, C083)
Assay: cell-based or functional assay
Remark: another data set of the same source

IC50 Values for HUVEC Proliferation Inhibition (CellTiter-Glo RLU) [nM]	Binder
0.029	B1

Biological target: T2, Human ANG-2 protein (Sino Biological, …)
Assay: ELISA, human ANG-2 coated, anti-human Fc-HRP detection

EC50 [nM]	Binder
0.088	B6
0.096	B7
0.044	B8
0.042	B9
0.065	B10

Biological target: T2, Human ANG-2 protein (Sino Biological, …)
Assay: ELISA, human ANG-2 coated; relative to Faricimab = 100%

Relative activity [%]	Binder
2130	B6
1950	B7
4250	B8
4450	B9
2880	B10

Biological target: T2, Human ANG-2 protein (Sino Biological, …)
Assay: BLI, ANG-2.his captured on NTA sensor, sample in solution

Kd [nM]	koff [s⁻¹]	kon [M⁻¹ s⁻¹]	Binder
< 0.001	< 1e-07	1.06e+06	B1
< 0.001	< 1e-07	325000	B2
< 0.001	< 1e-07	206000	B3
< 0.001	< 1e-07	144000	B4
< 0.001	< 1e-07	35400	B5

Biological target: T3, Human VEGFA165.his (ACRO, VE5-H5248)
Assay: BLI, sample captured on ProA sensor, VEGFA165.his in solution

Kd [nM]	koff [s⁻¹]	kon [M⁻¹ s⁻¹]	Binder
0.954	0.000388	407000	B1
0.492	0.000111	227000	B2
0.884	2.24e-05	25400	B3
	0.000388	407000	B4
0.129	1.9e-05	147000	B5

Biological target: T2, Human ANG-2 protein (Sino Biological, …)
Assay: competition ELISA, ANG-2 binding to coated TIE2; relative to Faricimab = 100%

Relative activity [%]	Binder
7070	B1
9780	B2
1530	B3
1480	B4
2000	B5

Biological target: T2, Human ANG-2 protein (Sino Biological, …)
Assay: competition ELISA, TIE2 coated, ANG-2 (100 ng/mL) plus sample, anti-His-HRP detection

IC50 [nM]	Binder
0.112	B1
0.081	B2
0.518	B3
0.533	B4
0.396	B5
